The values that follow come from ChEMBL document CHEMBL4888484, “Replenishing the malaria drug discovery pipeline: Screening and hit evaluation of the MMV Hit Generation Library 1 (HGL1) against asexual blood stage Plasmodium falciparum ,using a nano luciferase reporter read-out” (2022).

Among all 150,000 compounds or so, about 540 (0.36%) showed an effect of 50% or more. The list shows a part of the results.

The assay concerns Plasmodium falciparum. Nature of the assay: Primary screen in NF54 nanoGlo assay, in single point, at 2uM, 72h; a lower Z score goes with more inhibition. Type of assay: functional, Erythrocyte. The conditions noted are these: timepoint 72 hour.
As a reminder, the % Inhibition is the change of the read-out against control, counted positive when it falls. For the compound `Cc1ccc(Cl)cc1NC(=O)N(C)CCc1noc(C(=O)NCc2ccc3c(c2)OCO3)n1`, the “% Inhibition” value is 14% and the Z score is on record as -1.32.
The like results for `CCc1nccn1C[C@H](C)N1CCN(Cc2ccc3c(c2)OCO3)CC1` were, in that order, -6% and 0.7.
In the same order, the values of `NC(=O)[C@H]1CCCN1Cc1ccc2c3c(cccc13)C(=O)OC2` are 3% and -0.37.
Take `COCCN(CC1(C)CCOCC1)C(=O)c1ccsc1`: the “% Inhibition” value came to 1% and the Z score is -0.11.
In the same order, the values of `Cc1cc(C(=O)N2CCN(c3ncccn3)CC2)on1` are 1% and -0.19.
The like results for `CC(=O)c1sc(NC(=O)CC2CC3CCC2C3)nc1-c1ccccc1` (stereo not given) were, in that order, -12% and 1.53.
In the same order, the values of `NC(=O)C1CCCC(NC(=O)CN2C(=O)c3ccccc3C2=O)C1` (stereo not given) are 29% and -3.24.
As to `CC(C)(C)C(=O)CNC(=O)C1(O)CCCC1`, the “% Inhibition” value is reported as -2% and the Z score turned out to be 0.29.
In the same order, the values of `COc1cc2c(cc1OC)CN(C(=O)c1ccc(CS(=O)(=O)c3ccccc3)o1)CC2` are 9% and -1.02.
For the compound `O=C1NCCOCCN(S(=O)(=O)c2cccnc2)[C@H]2CCC[C@@H]12`, the “% Inhibition” value was determined as 1% and the Z score is -0.1.
The like results for `O=C(Nc1nnc(CC2CCCC2)s1)c1cnccn1` were, in that order, 0% and -0.05.
In the same order, the values of `Cc1cnc(NC(=O)C2C3CCCC32)[nH]1` (stereo not given) are -1% and 0.11.
In the same order, the values of `O=C(NC1CCN(Cc2ccccc2)CC1)c1n[nH]c2c1CCc1ccccc1-2` are 2% and -0.15.
As for `CN(Cc1ccccc1Br)C(=O)CCNC(=O)CC#N`, the “% Inhibition” value was found to be 1% and the Z score is reported as -0.2.
The like results for `c1cc(OCCO[C@@H]2CCCCO2)cc(-n2ccnc2)c1` were, in that order, -5% and 0.68.
The like results for `Cc1nc([C@H](C)n2ccnc2C(C)C)n(CCO)n1` were, in that order, -11% and 1.48.
With `CCc1ccc(N(CC)C(=O)Cn2c(=O)c3c(C)cc(C)nc3n(C)c2=O)cc1`, the “% Inhibition” value is listed as -7% and the Z score was determined as 1.03.
Turning to `O=C(CCN1CCCCO1)NCc1cccs1`, the “% Inhibition” value is given as -14% and the Z score was determined as 2.69.
The like results for `CC1CC(C)CN(S(=O)(=O)N2CCCC(C(=O)NCc3ccccc3Cl)C2)C1` (stereo not given) were, in that order, -5% and 0.76.
The like results for `CCCCn1nnnc1NC(=O)N1CCC[C@H]1c1nonc1C` were, in that order, -14% and 1.28.
`CN1CC(=O)N2[C@@H](Cc3c([nH]c4ccccc34)C2(C)C)C1=O`: the “% Inhibition” value is on record as 0% and the Z score was -0.05.
The like results for `O=C(C1CCOC1)N1CCOC(c2ccc(C(F)(F)F)cc2)C1` (stereo not given) were, in that order, -6% and 0.64.
In the case of `CCCn1nc(C(=O)N(C)C[C@H]2COc3ccccc3O2)ccc1=O`, the “% Inhibition” value is on record as -2% and the Z score is recorded as 0.36.
The like results for `CCc1cccc(C)c1NC(=O)N1CCS(=O)(=O)CC1` were, in that order, -10% and 1.44.
The like results for `COCCN(Cc1ccsc1)C(=O)Cc1sc(C)nc1C` were, in that order, -8% and 1.33.
For the compound `O=C(Nc1nc2c(Cl)cccc2n1CC(F)(F)F)[C@@H]1CCCO1`, the “% Inhibition” value was -2% and the Z score stood at 0.26.
The like results for `CCCN(CCC)C(=O)CCCC(=O)N[C@H]1CCc2c(O)cccc21` were, in that order, -5% and 0.73.
In the same order, the values of `Cc1ccc(C(=O)N2CCN([C@@H](C)C(=O)N3CCOCC3)CC2)cn1` are -14% and 1.89.
In the same order, the values of `CCn1cc(OCC(=O)N(C)Cc2ccc(Cl)s2)cn1` are -12% and 1.54.
Consider `CC(C)(C(=O)NC1CC2(C1)C[C@@H]2N)c1cccc(C(F)(F)F)n1` (stereo not given in full), for which the “% Inhibition” value turned out to be 7% and the Z score was -1.09.
The like results for `CO[C@H]1C[C@H](NC(=O)N2CC[C@](C)(C(F)(F)F)C2)C1` were, in that order, -8% and 0.82.
In the same order, the values of `C=CCN(CC(=O)N1CCNC1=O)CC(F)(F)F` are -6% and 1.21.
The like results for `O=C(Nc1n[nH]c2cc(F)ccc12)C(C1CC1)C1CC1` were, in that order, -14% and 1.68.
Take `CCN1CC[C@H](Nc2nc(C(C)C)ccc2C#N)C1`: the “% Inhibition” value amounted to 0% and the Z score came out at 0.
The like results for `COc1nccnc1-c1ccc2ncccc2c1` were, in that order, -5% and 0.73.
In the case of `COCCc1nc(C2CCC2)n(-c2cccc(C(=O)O)c2)n1`, the “% Inhibition” value is given as -10% and the Z score came out at 1.56.
In the same order, the values of `CCc1ccc(S(=O)(=O)N2CC[C@H](Oc3cccnn3)C2)s1` are -4% and 0.43.
Consider `CCCc1cc(C(=O)N[C@@H](C)C2=CCCCC2)[nH]n1`, for which the “% Inhibition” value is recorded as -3% and the Z score was determined as 0.51.
For `COc1ccc(-c2ccc(C(=O)N3CC[C@H](N)C3)c(F)c2)cc1`, the “% Inhibition” value is -1% and the Z score was 0.15.
In the case of `CC[C@](C)(O)CNC(=O)c1cnn2c(-c3cccnc3)ccnc12`, the “% Inhibition” value was -3% and the Z score worked out at 0.54.
The like results for `CC(=O)NC1(c2nc(C(C)C)no2)CCOCC1` were, in that order, 26% and -2.94.
Turning to `O=C(CCc1cccs1)N1CCC[C@H](c2[nH]ncc2Cc2ccccc2)C1`, the “% Inhibition” value is reported as 1% and the Z score was -0.11.
The like results for `Cc1cccc(-n2nc(C(=O)NC3CC3)c(=O)n(Cc3ccccc3C)c2=O)c1` were, in that order, -1% and 0.12.
On to `Cc1csc([C@H](C)NC(=O)Nc2nnc(C(F)F)s2)n1`, for which the “% Inhibition” value stood at 0% and the Z score was 0.04.
Turning to `CC1(NS(=O)(=O)c2ccc(OC3CCOCC3)c(F)c2)CCCCC1`, the “% Inhibition” value is recorded as -17% and the Z score amounted to 1.85.
Turning to `O=C(CN(Cc1ccco1)S(=O)(=O)c1ccccc1)N1CCC(Cc2ccccc2)CC1`, the “% Inhibition” value is listed as -6% and the Z score is reported as 0.59.
As for `CC(CN1CCCC1=O)NC(=O)N1CCCC1C=Cc1ccccc1` (stereo not given), the “% Inhibition” value was -8% and the Z score was found to be 0.85.
`CCN(C)C(=O)c1cccc(Nc2c(Oc3ccc4c(c3)OCO4)cnn(-c3cccc(Cl)c3)c2=O)c1`: the “% Inhibition” value is given as -11% and the Z score is listed as 1.04.
In the same order, the values of `Cc1ccc(CCOC(=O)c2ccc(C#N)cn2)cc1` are -1% and 0.09.
The like results for `O=C(c1cc(Cl)c2c(c1)OCCCO2)N1CCN(Cc2nc(-c3cccs3)no2)CC1` were, in that order, 11% and -1.33.
With `Cc1ccc(CC(Cc2ccc(C)cc2)N(C)C(=O)CCc2c(C)nn(C)c2C)cc1`, the “% Inhibition” value is on record as -4% and the Z score came out at 0.68.
In the same order, the values of `Cc1c(Cl)cccc1NC(=O)CN1N=C(C(=O)Nc2ccccc2)CCC1=O` are 31% and -4.41.
In the same order, the values of `CCNc1ccc(-c2noc([C@@H](C)c3cnn(C)c3)n2)cn1` are -11% and 1.51.
In the same order, the values of `Cc1nc(Cc2nc(-c3ccc4c(c3)OCCCO4)cs2)cs1` are -2% and 0.26.
For `C#CCNC(=O)CNC(=O)c1cccc(Cl)c1C`, the “% Inhibition” value is listed as -12% and the Z score is 2.3.
